Source: paper PMC4336329 (PLoS ONE, 2015)
About 14,000 (4.5%) of roughly 310,000 compounds showed an effect of 50% or more. The effect is printed as a negative number. This is one part of the list.

biological target: human ether-à-go-go-related gene (hERG) potassium channel (human, UniProt Q12809); assay: primary screen, population patch clamp on CHO cells stably expressing hERG
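Further: peak tail current of the secondary pulse compared with the same well before compound.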

Sequence of human ether-à-go-go-related gene (hERG) potassium channel (Q12809 whole entry, looked up): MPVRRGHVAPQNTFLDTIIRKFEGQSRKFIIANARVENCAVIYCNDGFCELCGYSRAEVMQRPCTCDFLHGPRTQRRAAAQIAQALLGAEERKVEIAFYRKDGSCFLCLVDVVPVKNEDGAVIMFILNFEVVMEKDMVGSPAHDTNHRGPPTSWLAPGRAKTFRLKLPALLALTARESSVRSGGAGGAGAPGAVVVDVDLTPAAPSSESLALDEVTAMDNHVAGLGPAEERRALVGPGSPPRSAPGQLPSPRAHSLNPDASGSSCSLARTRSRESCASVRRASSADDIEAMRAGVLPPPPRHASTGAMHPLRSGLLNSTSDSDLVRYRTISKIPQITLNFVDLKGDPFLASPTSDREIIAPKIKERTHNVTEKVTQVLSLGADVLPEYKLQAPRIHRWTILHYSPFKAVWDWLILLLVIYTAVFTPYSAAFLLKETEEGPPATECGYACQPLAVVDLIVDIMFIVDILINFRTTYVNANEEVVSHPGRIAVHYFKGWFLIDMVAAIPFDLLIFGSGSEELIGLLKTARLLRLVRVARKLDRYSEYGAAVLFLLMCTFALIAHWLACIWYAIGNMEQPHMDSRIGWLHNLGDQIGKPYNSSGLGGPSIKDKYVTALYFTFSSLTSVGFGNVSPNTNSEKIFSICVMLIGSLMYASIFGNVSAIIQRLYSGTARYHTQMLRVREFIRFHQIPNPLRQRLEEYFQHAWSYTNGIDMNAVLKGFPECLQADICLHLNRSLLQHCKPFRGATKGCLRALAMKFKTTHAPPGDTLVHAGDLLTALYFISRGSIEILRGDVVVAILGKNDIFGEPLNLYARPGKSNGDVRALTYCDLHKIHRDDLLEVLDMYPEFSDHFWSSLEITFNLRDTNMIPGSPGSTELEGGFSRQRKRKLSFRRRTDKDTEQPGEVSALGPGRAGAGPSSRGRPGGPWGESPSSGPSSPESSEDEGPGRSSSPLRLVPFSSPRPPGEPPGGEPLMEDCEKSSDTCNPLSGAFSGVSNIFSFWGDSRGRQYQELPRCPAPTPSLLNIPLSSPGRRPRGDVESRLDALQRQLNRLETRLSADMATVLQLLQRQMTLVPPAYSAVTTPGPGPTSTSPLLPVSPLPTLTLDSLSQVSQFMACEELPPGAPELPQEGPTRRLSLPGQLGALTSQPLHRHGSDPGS

Row | SMILES | hERG current change (%, negative = inhibition) at 10uM
1 | C=CCNC(=S)NN=C1CCCCCCC1 | 10.6%
2 | Cc1ccc(-c2csc(NC(=O)CN3CCOCC3)n2)cc1C | -3.81%
3 | COC(=O)c1ccc(NC(=O)CCn2cccc2)cc1 | 4.38%
4 | COC(=O)C1=C(C)N(Cc2ccccc2)C(=O)N[C@H]1c1cccc(C(F)(F)F)c1 | -8.04%
5 | Cc1[nH]c(C)c(S(=O)(=O)N2c3ccccc3CC2C)c1C(=O)N1CCCCC1 (centres unmarked) | 2.21%
6 | CCOc1ccc(-c2cc(CCCC(=O)NCc3ccc(C)cc3)no2)cc1 | 14.5%
7 | CC(=O)N1CCCc2cc(S(=O)(=O)N3CCCC(C(=O)Nc4ccc(C)cc4C)C3)ccc21 (centres unmarked) | 13.6%
8 | Cc1ccc(N2C(=O)CC(Sc3ccccc3C(=O)O)C2=O)cc1 (centres unmarked) | 0.908%
9 | O=C(COC(=O)c1cc([N+](=O)[O-])ccc1Cl)NCCc1ccccc1 | -8.52%
10 | N#Cc1c(-c2ccc(Cl)cc2)ccnc1N1CCOCC1 | 3.33%
11 | O=C(Nc1ccc(Cl)cc1)O/N=C(\c1ccccc1)c1ccccn1 | 1.65%
12 | CCOC(=O)c1sc2nc(C)c3c(c2c1N)CC(C)(C)OC3 | 13.4%
13 | CC1=CC(C2CC(=O)N(c3ccc(C)cc3)C2=O)CC2C(=O)N(c3ccc(C)cc3)C(=O)C12 (centres unmarked) | -6.41%
14 | COc1ccc(OCC(=O)Nc2ccc(N3CCOCC3)cc2)c([N+](=O)[O-])c1 | 12.1%
15 | Cc1ccc(C(=O)NCCc2n[nH]c(=S)n2C)cc1 | 11.5%
16 | Cc1nc(-c2ccccc2)sc1C(=O)Nc1ccccc1F | 14.1%
17 | O=C(Nc1ccc2nc(-c3ccco3)[nH]c2c1)c1ccco1 | -5.43%
18 | Cc1cc(C(=O)NCc2ccc(C(=O)O)o2)c(C)o1 | 8.35%
19 | NC(=O)Cn1c(-c2nonc2N)nc2ccccc21 | 19.2%
20 | CCOc1ccc(Nc2c3ccccc3nc3ccccc23)cc1 | -42.4%
21 | O=C(CSc1nnc(Nc2ccccc2)s1)NC1CC1 | -8.25%
22 | COc1ccc(NS(=O)(=O)c2cccc(C(=O)N3CCN(c4ccccc4O)CC3)c2)cc1 | -14.9%

Row | SMILES | hERG current change (%, negative = inhibition) at 10uM
23 | CC(=O)c1ccc(OC(=O)CCc2ccccc2)cc1 | 1.84%
24 | Cn1nc(C(=O)NNC(=O)CCOc2ccc(C(C)(C)C)cc2)c2ccccc2c1=O | -46.7%
25 | CC(=O)Nc1ccc(C(=O)OCCc2ccccc2)cc1 | -5.59%
26 | CCC1(CC)NC(=O)N(CC(=O)OCc2nc3cc(C(=O)OC)ccc3c(=O)[nH]2)C1=O | 5.39%
27 | Cc1c(OCC(=O)NCCCN2CCCC2=O)ccc2c3c(c(=O)oc12)CCCC3 | -8.86%
28 | NC(=O)c1cc2ccccc2o/c1=N/NC(=O)c1ccccc1 | -10.6%
29 | O=S(=O)(Nc1ccc(-n2cnnn2)cc1)c1ccccc1F | 7.1%
30 | CCN1CCN(CCCCSc2ccccc2)CC1.O=C(O)C(=O)O | -28.3%
31 | Cc1ccc(N(CC(=O)NC2CCCCC2C)S(=O)(=O)c2c(C)nn(C)c2C)cc1 (centres unmarked) | 3.67%
32 | COC(=O)c1ccc(NC(=O)c2ccc3c(c2)NC(=O)C2CCCN32)cc1 (centres unmarked) | -2.49%
33 | O=C(N/N=C/c1c[nH]c2ccc(Br)cc12)c1ccccn1 | 21.5%
34 | COc1cccc(OC)c1OCCCSc1nc(C)cc(=O)[nH]1 | -39.2%
35 | Cc1cc(C)c2[nH]c(=O)c(C(c3nnnn3Cc3ccc4c(c3)OCO4)N3CCCC3)cc2c1 (centres unmarked) | -6.45%
36 | CC1(C)CC2CC(C)(CN2CC(O)c2ccccc2)C1.O=C(O)C(=O)O (centres unmarked) | -42.5%
37 | CC(C)c1ccc(S(=O)(=O)N2CCN(C(C)C(=O)Nc3ccccc3-c3ccccc3)CC2)cc1 (centres unmarked) | 12%
38 | O=[N+]([O-])c1ccc(-c2nnc([S-])n2-c2ccccc2)cc1.[Na+] | 11.3%
39 | CC(Oc1ccccc1)C(=O)Nc1nnc(S(=O)(=O)N(C)c2ccccc2)s1 (centres unmarked) | 5.26%
40 | COc1ccc(S(=O)(=O)N2CCC(C(=O)N3CCc4ccccc4C3)CC2)cc1 | -42.6%
41 | O=C(NCc1ccc(Cl)cc1)c1cc2c(nc3sccn32)s1 | 12.9%
42 | O=C(CCN1C(=O)[C@@H]2Cc3ccccc3CN2C1=O)NCc1ccc(Cl)cc1 | -64.2%
43 | CN(C)CCNc1nc(S(=O)(=O)c2ccccc2)c(Cl)s1 | -56.2%
44 | CCCOCn1cc(F)c(=O)[nH]c1=O | 19.3%

Row | SMILES | hERG current change (%, negative = inhibition) at 10uM
45 | COc1ccc(CN(C2CCCC2)S(=O)(=O)c2ccc(-n3cnnn3)cc2)cc1 | -43.8%
46 | COc1cccc(N2C(=O)CC(c3c[nH]c4ccccc34)C2=O)c1 (centres unmarked) | 20%
47 | O=C(CSc1nnc(COc2cccc3ccccc23)o1)N1c2ccccc2CCc2ccccc21 | 7.68%
48 | CC(Oc1ccc(Cl)cc1)C(=O)Nc1sccc1C(N)=O (centres unmarked) | -10.4%
49 | Cc1ccc(-c2nn(-c3ccccc3)cc2C(=O)NCC2CCCO2)cc1 (centres unmarked) | -25.8%
50 | Cc1ccc(S(=O)(=O)NCCC(=O)NC2CCCC2)cc1 | -3.1%
51 | Cc1cc(NC(=O)CSc2ccc3nnc(CCNC(=O)c4ccccc4)n3n2)no1 | 2.86%
52 | C=C1CSc2nc3ccccc3c(=O)n21 | 10.5%
53 | COc1cc(-c2nc3n(c(=O)c2C#N)CCS3)cc(OC)c1OC | 8.83%
54 | CCCC1=[N+](CC(=O)c2ccc(Br)cc2)CCn2cccc21.[Br-] | -6.09%
55 | Cc1ccc(NC(=O)CO/N=C(\N)c2nonc2N)cc1C | -0.00012%
56 | CC(C)(C)C(=O)c1cn(CC(=O)NCc2ccco2)c2ccccc12 | 24.1%
57 | CN1CCN(S(=O)(=O)c2cccc(S(=O)(=O)c3cccc(S(=O)(=O)N4CCN(C)CC4)c3)c2)CC1 | -4.34%
58 | O=C(NCc1nc2ccccc2[nH]1)c1cccc(S(=O)(=O)N2CCCCC2)c1 | 13.9%
59 | Cc1ccc(-n2c(-c3cccc(C)c3)n[nH]c2=S)cc1 | 9.94%
60 | Cc1ccc(-n2nc(C(=O)O)cc2-c2ccc(Cl)cc2)cc1 | 24.9%
61 | COc1cc(/C=c2\s/c(=C(/C#N)C(=O)N3CCCC3)n(-c3ccccc3)c2=O)ccc1O | -4.52%
62 | C/C(=N\O)c1ccn(S(=O)(=O)c2ccc(Cl)cc2)c1 | 2.22%
63 | CNC(=O)NC(=O)CSc1ccc(NC(C)=O)cc1 | 14.5%
64 | CC(=O)c1ccc(S(=O)(=O)NCC(=O)N2CCN(C/C=C/c3ccccc3)CC2)cc1 | -38.7%
65 | O=C(NCCCN1CCCC1=O)c1ccc(OC(F)(F)F)cc1 | -0.372%
66 | Cc1ccc(Cl)cc1NC(=O)c1cc(S(=O)(=O)N2CCOCC2)cn1C | 5.1%

Row | SMILES | hERG current change (%, negative = inhibition) at 10uM
67 | O=C1N(CN2CCOCC2)c2ccccc2C12OCC(CCl)O2 (centres unmarked) | -14.1%
68 | Cc1nc2c(sc3nc4c(cc32)COC(C)(C)C4)c(=O)n1CC(=O)NCc1ccco1 | -4.06%
69 | CC(C)(C)n1nc(Cc2cccc3ccccc23)c(C#N)c1N | 3.77%
70 | COc1ccc(S(=O)(=O)N(CC(=O)NCC2CCCO2)c2ccc(F)cc2)cc1OC (centres unmarked) | 3.83%
71 | COc1ccc2cc(/C=N/NC(=O)c3ccc(CN(c4cccc(Cl)c4Cl)S(C)(=O)=O)cc3)c(Cl)nc2c1 | 16.5%
72 | CCOc1ccccc1N1CCN(C(=O)c2ccc3[nH]c4c(c3c2)CCCC4)CC1 | 23%
73 | COc1ccccc1-n1c(C)cc(SC)c(C(C)=O)c1=S | -4.83%
74 | COc1cc(OC)c(C(=O)OCC(=O)NC2CCCC2)cc1OC | 19.7%
75 | O=c1[nH]cc(S(=O)(=O)Nc2ccc3c(c2)OCO3)c(=O)[nH]1 | -17.8%
76 | O=C(Nc1nccs1)c1ccc(COc2ccc(Cl)cc2)o1 | 5.18%
77 | CCOC(=O)c1ccc(COC(=O)c2ccc(-c3nnc(-c4ccccc4)o3)cc2)o1 | 1.77%
78 | CN(C)C1(CNC(=O)C2CCC(=O)N(Cc3ccc(Cl)cc3)C2)CCCCC1 (centres unmarked) | 0.208%
79 | Cc1ccc(C2=[N+]([O-])C3(CCCCC/C3=N\O)N(O)C2(C)C)o1 (centres unmarked) | -3.99%
80 | CCCC[C@H]1COCCS(=O)(=O)N1Cc1cccc([N+](=O)[O-])c1 | -25.6%
81 | O=C(c1ccc(OC2CCN(C/C=C/c3ccc(F)cc3)CC2)cc1)N1CCCCC1 | -64.9%
82 | CCS(=O)(=O)N1Cc2ccccc2CC1C(=O)Nc1nc2c(C)cccc2s1 (centres unmarked) | 6.09%
83 | CCN1CCN(Cc2ccc(NC(=O)c3ccc(C)c(NC(=O)c4csc(-c5ccncc5)n4)c3)cc2C(F)(F)F)CC1 | 7.22%
84 | CC(C)CNC(=S)N(CCO)Cc1cc2cc3c(cc2[nH]c1=O)OCO3 | -4.1%
85 | CC1(C)CC(NC(=O)COc2ccc(Cl)cc2Cl)CC(C)(C)N1 | -13.9%
86 | Cc1[nH]c(=O)c(C#N)c(C)c1CCC(=O)Nc1cc(S(C)(=O)=O)ccc1Cl | 16.1%
